# Hit rate of the full screen: of about 39,000 compounds, about 220 (0.56%) showed activity. Some of the results follow.
# Test system: Escherichia coli K-12 BW25113
# Experiment: relative growth (OD600 normalised to plate interquartile mean) (fraction); higher = less growth inhibition, active = 0.2 or less
# Settings: 50 µM; LB; incubation time: overnight (16-24 h)
# 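Also: static incubation at 37 °C against the wild-type strain, values averaged over two biological replicates.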
row,Structure (SMILES),relative growth
1,C[C@@H]1CN([C@H](C)CO)C(=O)c2cc(NC(=O)Nc3ccccc3)ccc2O[C@@H]1CN(C)Cc1ccc(C(=O)Nc2ccccc2N)cc1,inactive: 0.975
2,CC1(COc2ccc3c(c2)ncn3-c2ccc3cccc(N4CCC(N)CC4)c3n2)COC1,inactive: 1.02
3,C=CCC[C@@H](Cc1ccc(F)cc1)C(=O)OC[C@@H](NC(=O)[C@@H](CC=C)CC(=O)N(CCO)Cc1ccccc1)c1ccccc1,inactive: 1.08
4,C[C@@H]1CCCCO[C@@H](CN(C)C(=O)Nc2ccccc2)[C@H](C)CN([C@H](C)CO)C(=O)c2cc(NC(=O)c3ccccc3)ccc2O1,inactive: 0.99
5,C[C@@H]1CN([C@H](C)CO)C(=O)c2cc(NC(=O)CCC(F)(F)F)ccc2O[C@@H](C)CCCCO[C@@H]1CN(C)C(=O)Cc1ccccc1,inactive: 0.965
6,O=C(O)Cn1c(=O)oc2ccccc21,inactive: 0.99
7,CN(C)CCC=C1c2ccccc2COc2ccccc21.Cl,inactive: 1.03
8,C[C@@H]1CN([C@H](C)CO)C(=O)Cc2cc(NC(=O)Cc3cn(C)c4ccccc34)ccc2O[C@@H]1CN(C)Cc1ccc(Oc2ccccc2)cc1,inactive: 1.02
9,COc1ccccc1C#Cc1cnc2c(c1)C(=O)N([C@H](C)CO)C[C@@H](C)[C@@H](CN(C)C(=O)CN(C)C)O2,inactive: 1
10,COCC(=O)Nc1ccccc1C(=O)O,inactive: 1.02
11,C[C@@H]1CN([C@H](C)CO)C(=O)c2ccccc2-c2ccccc2CO[C@@H]1CN(C)Cc1cccc(C(F)(F)F)c1,inactive: 1.04
12,N=C(N)S/C=C\C(=O)O,inactive: 0.992
13,CC(C)C[C@H](N)C(=O)N[C@@H](C)C(=O)O,inactive: 1.02
14,COc1cccc(S(=O)(=O)Nc2ccc3c(c2)[C@@H]2C[C@H](CC(=O)NC4CCCCC4)O[C@@H](CO)[C@@H]2O3)c1,inactive: 1
15,FC(F)(F)c1nc2ccccc2[nH]1,inactive: 0.98
16,C[C@H](CO)N1C[C@H](C)[C@@H](CN(C)S(C)(=O)=O)Oc2ccc(NC(=O)NC3CCCCC3)cc2C1=O,inactive: 1
17,C[C@@H]1CCCCO[C@@H](CN(C)Cc2ccccc2)[C@H](C)CN([C@@H](C)CO)C(=O)c2cc(NS(=O)(=O)c3ccccc3)ccc2O1,inactive: 0.966
18,Cc1noc(C)c1S(=O)(=O)Nc1ccc2c(c1)C(=O)N([C@H](C)CO)C[C@@H](C)[C@@H](CN(C)C)OCCCC[C@@H](C)O2,inactive: 0.995
19,CN1CCN(C(=O)C[C@@H]2C=C[C@@H](NC(=O)c3ccc4c(c3)OCO4)[C@H](CO)O2)CC1,inactive: 0.91
20,COCC#Cc1ccc2c(c1)O[C@@H](CN(C)Cc1ccc(F)cc1)[C@@H](C)CN([C@@H](C)CO)S2(=O)=O,inactive: 1.02
21,CCC(=O)N(C)C[C@H]1Oc2ncc(C#C[C@@H](C)O)cc2C(=O)N([C@@H](C)CO)C[C@H]1C,inactive: 1.02
22,C[C@@H]1CN([C@@H](C)CO)C(=O)c2cc(NC(=O)C3CC3)ccc2O[C@@H]1CN(C)S(=O)(=O)c1ccccc1,inactive: 0.985

row,Structure (SMILES),relative growth
1,NC(=O)C[C@H](NC(=O)Cc1ccc(O)cc1O)C(=O)O,inactive: 1.01
2,COc1cccc(NC(=O)N(C)C[C@@H]2Oc3cc(C#Cc4ccncc4)ccc3S(=O)(=O)N([C@@H](C)CO)C[C@@H]2C)c1,inactive: 1.02
3,CC(O)C(=O)Nc1c(I)c(C(=O)NC(CO)CO)c(I)c(C(=O)NC(CO)CO)c1I (stereo not drawn),inactive: 1.12
4,C[C@@H]1CN([C@@H](C)CO)C(=O)c2cc(NS(=O)(=O)c3ccccc3)ccc2O[C@H]1CN(C)S(C)(=O)=O,inactive: 0.987
5,C[C@@H]1CN([C@H](C)CO)C(=O)c2cc(NC(=O)CCN3CCOCC3)ccc2O[C@H]1CN(C)C(=O)Nc1ccc(F)cc1,inactive: 0.977
6,CC=Cc1ccc2n(c1=O)C[C@H]1[C@H](CO)[C@@H](C(=O)NCCc3cn(C)cn3)N(C(=O)C3CC3)[C@@H]21,inactive: 1
7,C[C@@H]1CN([C@@H](C)CO)C(=O)c2cccc(NC(=O)C3CCCCC3)c2O[C@@H]1CN(C)C(=O)Nc1ccc(C(F)(F)F)cc1,inactive: 0.989
8,CCOC(=O)Nc1ccc(C)s1,inactive: 0.998
9,Cc1ccc(S(=O)(=O)Nc2ccc3c(c2)C(=O)N([C@@H](C)CO)C[C@@H](C)[C@@H](CN(C)Cc2ccc(Cl)c(Cl)c2)O3)cc1,inactive: 0.978
10,C[C@@H]1CN([C@H](C)CO)C(=O)c2c(c3ccccc3n2C)-c2ccccc2CO[C@@H]1CN(C)C(=O)Nc1cccc(Cl)c1Cl,inactive: 1.02
11,NCC[C@H]1CC[C@H](NC(=O)c2ccccc2F)[C@H](CO)O1,inactive: 1.02
12,COc1ccc(CN(C)C[C@@H]2Oc3ccc(NC(=O)C4CC4)cc3CC(=O)N([C@@H](C)CO)C[C@@H]2C)cc1,inactive: 0.992
13,C[C@H](CO)N1C[C@H](C)[C@H](CN(C)Cc2ccc(C(=O)O)cc2)Oc2c(NC(=O)Nc3ccc(C(F)(F)F)cc3)cccc2C1=O,inactive: 0.998
14,O=C(C[C@H]1CC[C@@H]2[C@H](COC[C@@H](O)CN2C(=O)Nc2cccc(F)c2)O1)NCCCN1CCOCC1,inactive: 0.949
15,Cc1ccc(S(=O)(=O)N(C)C[C@@H]2Oc3c(NC(=O)C4CCOCC4)cccc3C(=O)N([C@@H](C)CO)C[C@H]2C)cc1,inactive: 0.989
16,C=CN1CCCC1=O,inactive: 0.978
17,C[C@H](CO)N1C[C@H](C)[C@H](CN(C)Cc2ccc(C(=O)O)cc2)OCCCC[C@H](C)Oc2ccc(NC(=O)CCC(F)(F)F)cc2C1=O,inactive: 1.04
18,COC[C@@H](C)Nc1ncnc2nc[nH]c12,inactive: 1.01
19,CC(C)NC(=O)N(C)C[C@@H]1Oc2ccc(NC(=O)Cc3ccccc3)cc2C(=O)N([C@H](C)CO)C[C@H]1C,inactive: 0.996
20,COc1ccc(S(=O)(=O)Nc2ccc3c(c2)C(=O)N([C@H](C)CO)C[C@@H](C)[C@H](CN(C)C(=O)Nc2c(C)noc2C)O3)cc1,inactive: 1.01
21,COc1ccc(NC(=O)Nc2ccc3c(c2)C(=O)N([C@H](C)CO)C[C@H](C)[C@@H](CN(C)S(=O)(=O)c2c(C)noc2C)OCCCC[C@H](C)O3)cc1,inactive: 1.01
